# In the BET-seq Pho4 binding data (Le et al. 2018):
# Some of the results follow. These are noisy estimates, calculated here from bound and input reads.
# Target: T1, Pho4 (S. cerevisiae) (UniProt P07270)
# T1 sequence: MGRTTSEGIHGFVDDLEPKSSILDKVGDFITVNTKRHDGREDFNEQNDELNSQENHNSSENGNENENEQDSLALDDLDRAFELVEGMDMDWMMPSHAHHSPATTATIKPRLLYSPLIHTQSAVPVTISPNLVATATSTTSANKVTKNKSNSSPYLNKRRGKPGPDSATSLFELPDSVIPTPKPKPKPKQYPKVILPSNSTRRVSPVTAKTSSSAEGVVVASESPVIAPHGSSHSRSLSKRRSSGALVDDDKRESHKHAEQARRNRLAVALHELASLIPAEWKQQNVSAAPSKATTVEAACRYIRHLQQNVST
# Assay: relative binding free energy (BET-seq); higher = weaker binding
# Conditions: reference: library average
row,Sequence,relative binding free energy [kcal/mol]
1,GTGTGCACGTGAGCAG,0.12
2,GTTTCCACGTGGGATT,0.05
3,GTTCGCACGTGTTTTT,0.12
4,GCGCTCACGTGTGGGT,0.05
5,TTACACACGTGGGTGT,-0.11
6,TTGTTCACGTGTGTCA,0.21
7,TTCTTCACGTGTGTAT,0.38
8,GGTATCACGTGCGGAA,0.21
9,AGAGTCACGTGACAGT,0.21
10,ATCGTCACGTGGTAGG,-0.02
11,GTGGGCACGTGGAGGG,-0.07
12,GGGGTCACGTGTTCTT,0.19
13,AGCAACACGTGAGGGG,0.2
14,GCGGTCACGTGGTGGC,0.09
15,ATTAGCACGTGCAGTT,0.04
16,GGAGGCACGTGTTGGG,-0.08
17,CGTTCCACGTGTAGTT,0.21
18,TCAGGCACGTGAGGAA,0.25
19,GTGTGCACGTGTGGCG,0.05
20,TATTTCACGTGGGGGT,0.18
21,ATTAGCACGTGGGCGG,-0.13
22,GTAATCACGTGGGGGG,0.08
23,AGGAGCACGTGGGGGG,-0.22
24,TTCTGCACGTGTGCTT,0.04
25,GCGAGCACGTGGGGGT,-0.16
26,GCATTCACGTGTAGTG,0.19

row,Sequence,relative binding free energy [kcal/mol]
1,GACTGCACGTGTGGTA,0.07
2,GTAGGCACGTGATGTG,-0.02
3,TAAGCCACGTGTGTTT,0.11
4,GGCGGCACGTGGTAGA,-0.08
5,AGACGCACGTGTGGCG,-0.13
6,GTGTTCACGTGGTAAA,0.28
7,GGCGTCACGTGGGACG,0.12
8,CGTGGCACGTGGGCTG,-0.27
9,TTGGGCACGTGGGGTC,-0.16
10,TGATGCACGTGACATG,0.08
11,CTTGTCACGTGTATTT,0.11
12,ATTGACACGTGTTTGT,-0.05
13,TAGTTCACGTGGCGTG,0.2
14,CGTTGCACGTGACGTT,0.18
15,GCAGGCACGTGTGCGG,-0.21
16,ATAGGCACGTGTGAGA,0.06
17,AGTTACACGTGTGGAA,0.06
18,ATGGACACGTGATGGT,0.16
19,GAGACCACGTGGTGTG,0.07
20,ATGTTCACGTGTTCTT,0.11
21,GTTGACACGTGGTTAA,-0.03
22,GTTGACACGTGGTGGA,0.06
23,TTAATCACGTGATGGG,0.32
24,TGGATCACGTGGGTGT,0.11
25,TTAGGCACGTGCAGTT,-0.08
26,GTTGTCACGTGGCTTG,0.03

row,Sequence,relative binding free energy [kcal/mol]
1,GATTGCACGTGGGCAT,-0.01
2,TTGGGCACGTGAAGCG,0.06
3,GGAGGCACGTGTGCGT,-0.14
4,GTTAACACGTGAATGG,0.24
5,TTACGCACGTGAAGTT,0.16
6,TGTGGCACGTGCGAAT,0.04
7,GGGTACACGTGGTGGG,0.06
8,GGTTGCACGTGTCGCT,0.04
9,TTGAGCACGTGCGTGT,-0.23
10,GGACTCACGTGTGTGG,0.11
11,TGAGGCACGTGGAATT,0.05
12,TTAGACACGTGCGTGG,-0.01
13,TGTTACACGTGGATAA,0.07
14,GGTGACACGTGTGGGT,0.11
15,AGTCTCACGTGCTTGT,0.32
16,TGGATCACGTGAGTAA,0.28
17,AGTGACACGTGACTGT,0.01
18,GATCGCACGTGGGAGT,-0.05
19,CGTGGCACGTGGCGGT,-0.17
20,TGTTTCACGTGTAATA,0.25
21,CATTACACGTGTAGGT,0.04
22,TGGCACACGTGTAGGT,0.05
23,TTATACACGTGTCATG,-0.1
24,GCGTGCACGTGTCGGT,0.07
25,TGAGTCACGTGTTAGT,0.22
26,TAAATCACGTGTGTTT,0.08

row,Sequence,relative binding free energy [kcal/mol]
1,CTGTTCACGTGGTGCA,0.16
2,TGTTCCACGTGCTGTG,0.02
3,TTTTGCACGTGAACGG,0.14
4,ATGGCCACGTGAGTGT,0.18
5,GGGTGCACGTGTAGTT,0.01
6,GGTGACACGTGTGGGG,0.14
7,TAGTGCACGTGTCATT,-0.08
8,TGGAGCACGTGTCTCG,0.08
9,TAGAGCACGTGATGGT,0.1
10,TTGGACACGTGGTTCT,-0.08
11,GTCGGCACGTGAATAG,0.19
12,AGTAGCACGTGATGCT,-0.01
13,TGTGTCACGTGTGCCT,-0.06
14,GCTTGCACGTGTATGA,0.08
15,CAAGCCACGTGGGGGG,-0.34
16,TGGCGCACGTGCTAGG,-0.12
17,ATTAGCACGTGATATA,0.03
18,ATGTACACGTGGGGGA,-0.1
19,ATTTGCACGTGTGGAC,0.1
20,TGATGCACGTGTTAGA,0.02
21,CTTGGCACGTGGCGGC,-0.16
22,GTTGACACGTGAGTGG,0.21
23,GAGGGCACGTGGAGCG,0.01
24,TAAAGCACGTGTATTG,-0.07
25,TTGGTCACGTGGGTGA,0
26,TGCTGCACGTGCGGGT,-0.1

row,Sequence,relative binding free energy [kcal/mol]
1,GACTACACGTGGTGGT,0.1
2,AAGGACACGTGTGGCG,0.23
3,GGCTTCACGTGTGGAA,0.35
4,GGTAACACGTGTAAAG,0.12
5,AAACGCACGTGGGGGG,-0.31
6,CTTCGCACGTGGTTGG,-0.08
7,TCATTCACGTGGTGAG,0.24
8,TGTAGCACGTGTGTGC,-0.04
9,TATGACACGTGGAGAT,0.1
10,GCGAGCACGTGTGTGA,-0.07
11,GGGAGCACGTGGCATT,-0.13
12,TTAGACACGTGAAATG,0.32
13,CTTGACACGTGGTGGA,0.02
14,TATTGCACGTGCGTAG,-0.22
15,AGGTCCACGTGATGGT,0.15
16,GTGAGCACGTGTAAGT,-0.11
17,AAGGACACGTGATAGG,0.23
18,GTGGGCACGTGTATAT,-0.08
19,TGTGGCACGTGACTGA,0.05
20,TAGACCACGTGGTAGT,-0.07
21,GAAGTCACGTGGGATT,0.23
22,TGAGGCACGTGGGCAT,-0.14
23,GCTGACACGTGTTAGT,0.25
24,TTGCGCACGTGAGTGT,0.18
25,TTCATCACGTGATTTG,0.36
26,ATCGGCACGTGTATTG,-0.1

row,Sequence,relative binding free energy [kcal/mol]
1,TTGGCCACGTGTATGT,-0.07
2,GGGGTCACGTGTCACG,0.16
3,ATTTCCACGTGTGATT,0.12
4,TCGGGCACGTGGAGCG,0
5,ACATTCACGTGTATGT,0.19
6,GTTGGCACGTGGTCTT,-0.05
7,TAGAGCACGTGGTGCG,-0.28
8,GCGATCACGTGCGGGG,0.15
9,TGTGACACGTGTTGAA,-0.01
10,ATAAGCACGTGATAGT,0.06
11,GGGTGCACGTGACCGG,0.02
12,GCGATCACGTGTAGGT,0.16
13,TTGAGCACGTGAGTTA,0.12
14,AGAGTCACGTGATTTG,0.24
15,AGTCACACGTGTTAAG,0.15
16,TATAGCACGTGAGAGT,0.21
17,TGTTTCACGTGGCACG,0.22
18,AGTAACACGTGTAAAT,0.14
19,ATGGGCACGTGGGTGG,-0.2
20,TAGAACACGTGAGTTT,0.2
21,TGGGGCACGTGTCGCG,-0.23
22,AAGAACACGTGGGAGT,0.11
23,TGGTCCACGTGAGGGA,0.16
24,TTTCTCACGTGGGTTA,0.1
25,GCTAACACGTGTAGGG,0.04
26,TAAGTCACGTGAGCGT,0.17

row,Sequence,relative binding free energy [kcal/mol]
1,CGGGGCACGTGCTCGG,-0.14
2,TTGACCACGTGTTGGA,-0.02
3,GACATCACGTGGGAGG,0.17
4,CGTGACACGTGGTAGA,-0.03
5,GGGTCCACGTGGGTGC,-0.11
6,TTTATCACGTGCCGGG,0.11
7,GTTTCCACGTGGGTCT,0.02
8,TTTGGCACGTGTATGG,-0.02
9,TGGGACACGTGGATCG,0.06
10,TTTATCACGTGGGTAG,0.12
11,AGGATCACGTGTTGAA,0.19
12,AGGAGCACGTGTTCGG,-0.19
13,TGAGACACGTGGTCGT,0.02
14,GAGGTCACGTGTTGGA,0.29
15,ATGTTCACGTGTTTCA,0.29
16,GTGTACACGTGAAGGT,0.26
17,GGGTACACGTGGCGTT,0.18
18,TCAGTCACGTGTTCTT,0.17
19,AATGGCACGTGGTAAG,-0.13
20,GGGGTCACGTGGTTCT,0.25
21,TAAGGCACGTGTGTTG,-0.01
22,TAGATCACGTGTGGAT,0.22
23,CGCGCCACGTGGGGGG,-0.34
24,AGACACACGTGATGGG,0.2
25,GGACGCACGTGGGATT,-0.1
26,CGGGGCACGTGTGACG,0.01

row,Sequence,relative binding free energy [kcal/mol]
1,TTGTTCACGTGGTGGC,0.2
2,TAGGGCACGTGGTCTA,-0.19
3,GTCTCCACGTGTGGTG,0.08
4,TCTGTCACGTGATTTG,0.25
5,AAGTCCACGTGGTTTT,-0.02
6,TGGAACACGTGGGTGG,0.03
7,CGCTGCACGTGGTGTT,-0.19
8,CTTGACACGTGGGGTG,-0.13
9,GACGCCACGTGGGGTG,-0.09
10,AGAGGCACGTGGTTAG,-0.24
11,GGGTTCACGTGAGCGT,0.27
12,TTTGTCACGTGTACCG,0.08
13,TTTGACACGTGTCTGA,0.09
14,TGGAACACGTGGAGAT,0.05
15,TTAAGCACGTGTTTGA,-0.29
16,GTGGTCACGTGCTGAG,0.16
17,TGTCACACGTGGTGGG,-0.01
18,TCAGGCACGTGGGGAG,-0.27
19,TTGTTCACGTGAAGGC,0.35
20,TCTATCACGTGAAGGT,0.41
21,TGTGGCACGTGGAGCG,-0.12
22,ACGGTCACGTGTTATT,0.09
23,TGACTCACGTGGTTGG,0.21
24,AGCGTCACGTGGGATT,0.01
25,GGAGGCACGTGTGAAG,0.04
26,TGTATCACGTGTGCAA,0.17

row,Sequence,relative binding free energy [kcal/mol]
1,ATGCACACGTGTGGAT,0.1
2,CATTACACGTGTGCGG,0.15
3,AGTTGCACGTGGGAAA,-0.03
4,TGAATCACGTGAGAGG,0.27
5,TTTCACACGTGTGTAT,-0.05
6,TTTGGCACGTGCATGT,-0.26
7,TGTTTCACGTGATGGT,0.42
8,TTATTCACGTGCTCGG,0.2
9,GGTGTCACGTGCGATT,0.15
10,TACGGCACGTGTAGGA,0.06
11,TGTTACACGTGCGTGC,0.07
12,ATTAACACGTGTGGGT,-0.03
13,GTGTTCACGTGGGGTT,0.21
14,TCTGTCACGTGACAGG,0.19
15,TCCGTCACGTGTGAGT,0.16
16,GGGTACACGTGTAAGT,0.14
17,AGGTACACGTGTAGTG,0.07
18,AGTTGCACGTGACAGT,0.12
19,TAGGGCACGTGGACGC,-0.03
20,AAGCACACGTGAGGGG,0.3
21,TATGACACGTGTTCGG,-0.13
22,CGGCGCACGTGATGGT,0.02
